Values of other authors, collected in patent publication US20240408074A1, “METHODS FOR THE TREATMENT AND PREVENTION OF NON-VIRAL TICK-BORNE DISEASES AND SYMPTOMS THEREOF OF” (60 DEGREES PHARMACEUTICALS LLC, priority 2023, published 2024).

System: P. falciparum gametocytes
Conditions: Example 4; tafenoquine single dose 1.66 mg/kg combined with dihydroartemisinin/piperaquine, or dihydroartemisinin-piperaquine alone; cited from earlier work

For `COc1cc(C)c2c(Oc3cccc(C(F)(F)F)c3)c(OC)cc(NC(C)CCCN)c2n1` (stereo not shown) [tafenoquine, N(4)-[2,6-Dimethoxy-4-methyl-5-[3-(trifluoromethyl)phenoxy]quinolin-8-yl]pentane-1,4-diamine], the “time until gametocytes non-infectious to mosquitoes” value is listed as “within seven days”.
